Results on one molecule are retold here after patent US10654915B2, “Antibodies useful in passive influenza immunization” (priority 2011, dated 2020).

The subject of this assay is H1N1 (A/California/04/2009). The assay is described as follows: Inhibition of infection and plaque formation in MDCK cell monolayers with or without trypsin. In kind it is cell-based, influenza A. The following applies: FIG. 4A.

B1: MAB486 (antibody, V domains shown)
VH: QVQLVESGGGMVQPGGSRRLSCAASGFSFSTYGMHWVRQAPGKGLEWVAVISYDGEKQYYLDSVKGRFTISRDNSKDTLYLQMNSLTAEDTAVYYCVKESARRLLRYFEWLLSSPFDNWGQGALVTVSS
VL: DIVMTQSPDSLAVSLGERATINCKSSQTVLYTSNKKNYLAWYQQKPGQPPKLLIYWASTRESGVPDRFSGSGSGTDFTLTISSLQAEDVAVYYCQQYYTSPYTFGQGTKLEIK
modifications: CHAIN (1)...(129) MAB486 heavy chain sequence of variable domain; CHAIN (1)...(113) MAB486 light chain sequence of variable domain
As to B1, the “neutralization in presence or absence of trypsin” value was “only in the absence of trypsin”.
